{"source": "the supplement of paper PMC9446081", "note": "About 220 (0.56%) of roughly 39,000 compounds showed activity. Some of the results follow.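 Further: static incubation at 37 °C against the wild-type strain, values averaged over two biological replicates.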"}
{"tested_on": "Escherichia coli K-12 BW25113", "experiment": "relative growth (OD600 normalised to plate interquartile mean) (fraction); higher = less growth inhibition, active = 0.2 or less", "conditions": "50 µM; LB; incubation time: overnight (16-24 h)"}
{"compound": "NNc1cccc(C(=O)O)c1", "relative growth": "inactive: 0.972"}
{"compound": "NC(CCC(=O)NC(CS)C(=O)NCC(=O)O)C(=O)O", "note": "(stereo not drawn)", "relative growth": "inactive: 1.06"}
{"compound": "CCc1nc2ccc(C(=O)Nc3cccc(NS(C)(=O)=O)c3)cn2c1N(C)CCN1CCOCC1", "relative growth": "inactive: 0.978"}
{"compound": "COc1ccc(NC(=O)O[C@H]2[C@H](OC(=O)Nc3ccccc3-c3ccccc3)[C@H](OC(=O)Nc3ccccc3-c3ccccc3)[C@@H](OC)O[C@@H]2COC(=O)NCCCCCC(=O)NO)cc1", "relative growth": "inactive: 0.994"}
{"compound": "C[C@H](CO)N1C[C@H](C)[C@@H](CN(C)C(=O)Nc2ccc3c(c2)OCO3)OCCCC[C@H](C)Oc2ccc(NS(=O)(=O)c3cccs3)cc2C1=O", "relative growth": "inactive: 1.02"}
{"compound": "COc1ccc([C@H]2CC([C@@H]3C(=O)N[C@H]4CC[C@H](Br)C[C@@H]4[C@H]3c3ccccc3)=NN2C(=O)c2ccccc2)cc1", "relative growth": "inactive: 1.01"}
{"compound": "N=C(N)NCCCCNC(=N)N", "relative growth": "inactive: 1.01"}
{"compound": "Nc1ccc(S(=O)(=O)NC(=O)c2ccccc2)cc1", "relative growth": "inactive: 1.2"}
{"compound": "C[C@H]1CN([C@@H](C)CO)C(=O)c2cc(NS(=O)(=O)c3ccc(F)cc3)ccc2O[C@H]1CN(C)S(C)(=O)=O", "relative growth": "inactive: 0.987"}
{"compound": "Cc1ccc(S(=O)(=O)N(C)C[C@H]2OCCCC[C@H](C)Oc3ccc(NC(=O)NC4CCCCC4)cc3C(=O)N([C@H](C)CO)C[C@@H]2C)cc1", "relative growth": "inactive: 1.02"}
{"compound": "C[C@@H]1CN([C@H](C)CO)C(=O)CCCn2nncc2CO[C@H]1CN(C)Cc1ccc2c(c1)OCCN2C", "relative growth": "inactive: 0.988"}
{"compound": "C[C@H](CO)N1C[C@H](C)[C@@H](CN(C)C(=O)Cc2ccccc2)OCCCC[C@H](C)Oc2ccc(NC(=O)Nc3ccccc3)cc2C1=O", "relative growth": "inactive: 1.01"}
{"compound": "C[C@H]1CN([C@@H](C)CO)C(=O)c2cccc(NC(=O)C3CC3)c2O[C@@H]1CN(C)Cc1ccc(-c2ccccc2)cc1", "relative growth": "inactive: 1.01"}
{"compound": "CC(C)NC(=O)N(C)C[C@H]1Oc2ccc(NC(=O)CCCN(C)C)cc2C(=O)N([C@H](C)CO)C[C@@H]1C", "relative growth": "inactive: 1.05"}
{"compound": "CCS(=O)(=O)NCC[C@H]1CC[C@H](NC(=O)C2CCOCC2)[C@H](CO)O1", "relative growth": "inactive: 0.975"}
{"compound": "C[C@@H]1CCCCO[C@H](CN(C)C(=O)Nc2ccccc2)[C@H](C)CN([C@H](C)CO)C(=O)c2cc(NC(=O)c3ccncc3)ccc2O1", "relative growth": "inactive: 0.988"}
{"compound": "COCC#Cc1cnc2c(c1)C(=O)N([C@H](C)CO)C[C@H](C)[C@@H](CN(C)C(=O)c1cnccn1)O2", "relative growth": "inactive: 1.03"}
{"compound": "COc1ccc(S(=O)(=O)Nc2ccc3c(c2)C(=O)N([C@@H](C)CO)C[C@@H](C)[C@H](CN(C)Cc2ccc(C(F)(F)F)cc2)OCCCC[C@@H](C)O3)cc1", "relative growth": "inactive: 0.965"}
{"compound": "COc1cccc(S(=O)(=O)N[C@@H]2C=C[C@@H](CC(=O)NC3CCC3)O[C@@H]2CO)c1", "relative growth": "inactive: 0.981"}
{"compound": "C[C@@H]1CCCCO[C@H](CN(C)C(=O)Nc2cccc3ccccc23)[C@@H](C)CN([C@H](C)CO)C(=O)c2cc(NS(=O)(=O)c3ccccc3)ccc2O1", "relative growth": "inactive: 0.994"}
{"compound": "C[C@H](CO)N1C[C@H](C)[C@H](CN(C)S(=O)(=O)c2ccc(F)cc2)Oc2ccc(NS(=O)(=O)c3cn(C)cn3)cc2CC1=O", "relative growth": "inactive: 0.994"}
{"compound": "COC(=O)[C@H](Cc1ccccc1)N1CC2=C[C@@H](C3CC3)n3c(=O)n(C)c(=O)n3[C@H]2[C@@H]1[C@@H](O)CCn1cc(-c2ccc(C(=O)NO)cc2)nn1", "relative growth": "inactive: 0.985"}
{"compound": "C[C@@H]1CN([C@H](C)CO)C(=O)c2cc(NS(=O)(=O)c3ccc(Cl)cc3)ccc2O[C@H]1CN(C)Cc1ccc(-c2ccccc2)cc1", "relative growth": "inactive: 1.03"}
{"compound": "C[C@H]1CN([C@@H](C)CO)C(=O)c2cc(NC(=O)CCN3CCOCC3)ccc2O[C@H]1CN(C)S(=O)(=O)c1ccccc1", "relative growth": "inactive: 1.04"}
{"compound": "C[C@@H]1CN([C@H](C)CO)C(=O)c2cc(C#Cc3ccc(F)cc3)cnc2O[C@@H]1CN(C)CC1CCOCC1", "relative growth": "inactive: 1.01"}
{"compound": "NCC[C@H]1CC[C@@H](NC(=O)C2CCCC2)[C@@H](CO)O1", "relative growth": "inactive: 1"}
{"compound": "CC(C)NC(=O)N(C)C[C@@H]1Oc2cc(C#Cc3ccc(F)cc3)ccc2S(=O)(=O)N([C@@H](C)CO)C[C@@H]1C", "relative growth": "inactive: 0.989"}
{"compound": "Cc1cc(-c2cc(OC(=O)c3ccccc3)ccc2Cl)cc2nnc(Nc3ccc(OCCN4CCCC4)cc3)nc12", "relative growth": "inactive: 1.01"}
{"compound": "CC(C)NC(=O)N(C)C[C@@H]1Oc2c(NC(=O)Nc3ccc4c(c3)OCO4)cccc2C(=O)N([C@H](C)CO)C[C@H]1C", "relative growth": "inactive: 1.03"}
{"compound": "CCCCCC1C(=O)CCC1CC(=O)OC", "note": "(stereo not drawn)", "relative growth": "inactive: 1.19"}
{"compound": "C[C@@H]1CCCCO[C@@H](CN(C)S(=O)(=O)c2ccc(Cl)cc2)[C@H](C)CN([C@@H](C)CO)C(=O)c2cc(NS(=O)(=O)c3ccccc3)ccc2O1", "relative growth": "inactive: 1.03"}
{"compound": "Cc1noc(C)c1NC(=O)Nc1ccc2c(c1)C(=O)N([C@H](C)CO)C[C@@H](C)[C@@H](CN(C)S(=O)(=O)c1ccc(F)cc1)OCCCC[C@@H](C)O2", "relative growth": "inactive: 0.971"}
{"compound": "Cc1noc(C)c1NC(=O)Nc1ccc2c(c1)C(=O)N([C@@H](C)CO)C[C@H](C)[C@H](CN(C)S(=O)(=O)c1cccs1)OCCCC[C@H](C)O2", "relative growth": "inactive: 0.981"}
{"compound": "COc1ccccc1C#Cc1cnc2c(c1)C(=O)N([C@@H](C)CO)C[C@H](C)[C@H](CN(C)C(=O)CN(C)C)O2", "relative growth": "inactive: 0.988"}
{"compound": "CCS(=O)(=O)Nc1ccc2c(c1)C(=O)N(C)[C@H]1CC[C@@H](CC(=O)N[C@H]3CCN(Cc4ccccc4)C3)O[C@H]1CO2", "relative growth": "inactive: 1.03"}
{"compound": "COc1ccc(CN(C)C[C@@H]2OCCCC[C@@H](C)Oc3ccc(NC(=O)CCC(F)(F)F)cc3C(=O)N([C@H](C)CO)C[C@H]2C)cc1", "relative growth": "inactive: 1.01"}
{"compound": "COc1ccc(S(=O)(=O)N(C)C[C@@H]2Oc3ccc(NC(=O)Nc4c(C)noc4C)cc3C(=O)N([C@H](C)CO)C[C@@H]2C)cc1", "relative growth": "inactive: 0.94"}
{"compound": "C[C@@H]1CN([C@@H](C)CO)C(=O)c2cc(NC(=O)CCC(F)(F)F)ccc2O[C@@H](C)CCCCO[C@H]1CN(C)C(=O)Nc1cccc2ccccc12", "relative growth": "inactive: 1.01"}
